# Experimental data as given in publication PMC7819943, “Rice protein-binding microarrays: a tool to detect cis-acting elements near promoter regions in rice”.
# Some of the results follow.
# Biological target: T1, OsWOX13 (Oryza sativa, UniProt Q5QMM3 1-267)
# T1 sequence: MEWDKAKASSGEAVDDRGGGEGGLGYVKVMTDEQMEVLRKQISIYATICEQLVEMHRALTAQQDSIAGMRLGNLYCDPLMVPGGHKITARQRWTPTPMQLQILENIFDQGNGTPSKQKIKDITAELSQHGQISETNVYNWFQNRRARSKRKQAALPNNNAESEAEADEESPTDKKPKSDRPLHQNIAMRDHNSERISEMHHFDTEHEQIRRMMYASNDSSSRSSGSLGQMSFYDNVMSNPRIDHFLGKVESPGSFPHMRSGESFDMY
# Experiment: protein-binding microarray (RPBM); PBS, 2% BSA, 51.3 ng/ul salmon testes DNA, 50 uM zinc acetate, 200 nM TF, 25 C, 1 h; high values mean tight binding
# Conditions: protein: recombinant; tags: N-terminal polyhistidine and DsRed monomer fusion (pET32a); label: CyDye5-dUTP incorporated in the synthesized complementary strand; 3' TTTTT single-stranded linker to array surface; dsDNA, one strand shown
# In short: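 The binding signal is fluorescence intensity per array feature (arbitrary units). Readings came from an Axon 4000B scanner after a washed, 2% BSA-blocked, double-stranded custom Agilent array had been incubated for 1 h at 25 °C with 200 nM protein and 50 µM zinc acetate. The protein was a Ni–NTA-purified transcription factor fused N-terminally to polyhistidine and DsRed, expressed in E. coli BL21-CodonPlus.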
row,Sequence,binding signal
1,TTGACAGCAGCATAATTAAAGCCTATTTGAACACGAATCACGGAGTCACCTAGTGCAG,10500 fluorescence intensity (a.u.)
2,TGGGTAGGGGCAGTTAATTGGGAGGGAATTCCTCCTTCACCGGAGTCACCTAGTGCAG,8890 fluorescence intensity (a.u.)
3,ATCGACTGATTGTTCGTTCCTTGTCGAAACTCCCAACTTCCGGAGTCACCTAGTGCAG,19700 fluorescence intensity (a.u.)
4,TCCTTAATTTATTTCTAGACTGTAAGAGCAAATGTGGAGGCGGAGTCACCTAGTGCAG,38900 fluorescence intensity (a.u.)
5,TACTCCCAATTAAGGCATTATAAGTAATGACCTTGCACCCCGGAGTCACCTAGTGCAG,5470 fluorescence intensity (a.u.)
6,ACTTGACTGACCGGACTAGAGAGAGATCCAAAGAGTAGATCGGAGTCACCTAGTGCAG,12500 fluorescence intensity (a.u.)
7,GGTCAATTAGAGAGGACAAATGATGTACATGATGGTGGCACGGAGTCACCTAGTGCAG,16000 fluorescence intensity (a.u.)
8,AGCCAATTAGTTTGCTCTCTAGCTAGCTTATTATTGTTTACGGAGTCACCTAGTGCAG,5260 fluorescence intensity (a.u.)
9,CAACTATTGTATTAATTGGTTATTAAATATTGGTTATAGACGGAGTCACCTAGTGCAG,6690 fluorescence intensity (a.u.)
10,GCCTAATTGTTTTATAATTTGACAACGTGGTGATACAATACGGAGTCACCTAGTGCAG,35600 fluorescence intensity (a.u.)
11,ATTATAATTTTAGTTCAGTATAACATATTTGCTTGCATTCCGGAGTCACCTAGTGCAG,5860 fluorescence intensity (a.u.)
12,CCAAAATAATAAATTTAATTACAAGTAGAGTACTATTTGTCGGAGTCACCTAGTGCAG,25800 fluorescence intensity (a.u.)
13,TAATACTGAATTAATCATGTGATAATGAACCATTTCGTTTCGGAGTCACCTAGTGCAG,4840 fluorescence intensity (a.u.)
14,ACAAAGATTTGATGGGTAACATGCTTTTATCCCCTGTTAACGGAGTCACCTAGTGCAG,5960 fluorescence intensity (a.u.)
15,CTCCGGCCTTTTAATTGGTGTTCTTGTTGGGCCGAAATGTCGGAGTCACCTAGTGCAG,6130 fluorescence intensity (a.u.)
16,TTGATCATCTTTCAATCCCCGGATTTAAATTCTAAGCTAACGGAGTCACCTAGTGCAG,4420 fluorescence intensity (a.u.)
17,CGATTATTGATTTGATGAAACTAATTTAGTATTATAAATACGGAGTCACCTAGTGCAG,24200 fluorescence intensity (a.u.)
18,TGTGATTGGTTGTTCTTGGTTTACTTCACCCTGTTGCTTCCGGAGTCACCTAGTGCAG,52000 fluorescence intensity (a.u.)
19,TGAGATTGAATGACGCCATGAAATCTGAATTTATTGAGTTCGGAGTCACCTAGTGCAG,36500 fluorescence intensity (a.u.)
20,TCTCAGAACGATCACAAATTAACGGCCCGGATTGGCCCAACGGAGTCACCTAGTGCAG,3360 fluorescence intensity (a.u.)
21,CACTATAGTTACAGTGTAATTACATGCAAGTTACAGTGTACGGAGTCACCTAGTGCAG,5020 fluorescence intensity (a.u.)

row,Sequence,binding signal
1,CATGGAAACTGCGAGATAAATTTATTAAGTCTAACTAATCCGGAGTCACCTAGTGCAG,6690 fluorescence intensity (a.u.)
2,CCGCAATTATTGGCCCTTAATTGTGAGGTTAATCCGTGGCCGGAGTCACCTAGTGCAG,60900 fluorescence intensity (a.u.)
3,AGAATTAACAGGGGAAAACATACATGTAGTTCTACCACTACGGAGTCACCTAGTGCAG,4210 fluorescence intensity (a.u.)
4,TCCTAGAGATTGGTGAAGTCACTTTAGGCGTCTCACTGTCCGGAGTCACCTAGTGCAG,4020 fluorescence intensity (a.u.)
5,ACTATAATTTAAGATTGAAAATTTCAAAATTTGGTTGTGACGGAGTCACCTAGTGCAG,38800 fluorescence intensity (a.u.)
6,CCTCCTTTCTAAATTGATCATCATATAATACAATCCAAAACGGAGTCACCTAGTGCAG,6210 fluorescence intensity (a.u.)
7,ATAAATTTATTCATTTATACTGTCGAATATTACCAGAAAACGGAGTCACCTAGTGCAG,6630 fluorescence intensity (a.u.)
8,ATAATTTATTCAAATAAGACGGACGATCAAACATTTGACACGGAGTCACCTAGTGCAG,6480 fluorescence intensity (a.u.)
9,CTCTTCTATCCTCTTAATTTGACAGAATAATCCCAGATCTCGGAGTCACCTAGTGCAG,7460 fluorescence intensity (a.u.)
10,ATCAAAATTTAAACTTGATTTGGTTGGGGTGCGCCAGGCCCGGAGTCACCTAGTGCAG,35000 fluorescence intensity (a.u.)
11,AGGAATTAACGTTGTGCTTGATTTCAGCTCGAGCTGCCGCCGGAGTCACCTAGTGCAG,4190 fluorescence intensity (a.u.)
12,CACGTAATTTTGAATCGTTAAATCTATTACAAGATTTGTTCGGAGTCACCTAGTGCAG,21400 fluorescence intensity (a.u.)
13,CCTAATTACGCCATGATTTGATAATATGATGCTACAATAACGGAGTCACCTAGTGCAG,39600 fluorescence intensity (a.u.)
14,TATGATTGACATGTGAGCTCCACCACTCTCGGGCCCACATCGGAGTCACCTAGTGCAG,34000 fluorescence intensity (a.u.)
15,TTTTAGATTTATTACATTATGAAATGGATATGGCGTGGAGCGGAGTCACCTAGTGCAG,9740 fluorescence intensity (a.u.)
16,AAGATTATAACAGAGTGACAACCAACTCATCACAGAAAATCGGAGTCACCTAGTGCAG,5190 fluorescence intensity (a.u.)
17,TTGGGTTTGAATCCAATCACCGGATAATCACTCGAGTCTACGGAGTCACCTAGTGCAG,10900 fluorescence intensity (a.u.)
18,TCCATGTACTATCAATCTAAACATATCTCTATCCAGATTCCGGAGTCACCTAGTGCAG,5970 fluorescence intensity (a.u.)
19,TTGTAGAATTAATTAAATAAACTGTATATATATATATGTGCGGAGTCACCTAGTGCAG,14600 fluorescence intensity (a.u.)
20,GCTTAATCTTCTTTAATAAATGATCCTTCCTCATTGTGGTCGGAGTCACCTAGTGCAG,4240 fluorescence intensity (a.u.)
21,CTGAAATGATTTTCATTTGATTCAAATGGGCCTAAGAATTCGGAGTCACCTAGTGCAG,17200 fluorescence intensity (a.u.)

row,Sequence,binding signal
1,CCGACAGAAATTTAATTGAAATTTGCCAAAGTTTCATGTTCGGAGTCACCTAGTGCAG,25300 fluorescence intensity (a.u.)
2,TTTACAAAATAATTATCAAGACCACAAATTAACACTTCAACGGAGTCACCTAGTGCAG,4720 fluorescence intensity (a.u.)
3,CAAATTTGACATACTTTTATATCACAATTTTAAGAAGCTTCGGAGTCACCTAGTGCAG,14300 fluorescence intensity (a.u.)
4,TAAATTCAAATTTAAATTTGAATCGGGTATGTAAACTTTTCGGAGTCACCTAGTGCAG,7760 fluorescence intensity (a.u.)
5,CTGGCTTAATGATTTACTTTGTTTGGATCTTGCGAACTCCCGGAGTCACCTAGTGCAG,10600 fluorescence intensity (a.u.)
6,TAAATTTAAATTTAGAACTTTAAATTTACTGGCTTATAAACGGAGTCACCTAGTGCAG,11600 fluorescence intensity (a.u.)
7,AAAATAAAACTAAATTATCATGTGATTGTAGCATTATATACGGAGTCACCTAGTGCAG,10500 fluorescence intensity (a.u.)
8,ATTAGAAAGGACCAATCTAATCAAGCAGCTATTGACACAGCGGAGTCACCTAGTGCAG,8860 fluorescence intensity (a.u.)
9,CTTGACATAGATGTGGAAAGGACACGATTTTAATTCAAAACGGAGTCACCTAGTGCAG,3280 fluorescence intensity (a.u.)
10,CATCTAATTTCTACGTATTTTCTGTGGTCCTATCAAATGACGGAGTCACCTAGTGCAG,6500 fluorescence intensity (a.u.)
11,TCCAAATTTAAGGTTGAAAATTCAAATTTTGGCTGATAAGCGGAGTCACCTAGTGCAG,4410 fluorescence intensity (a.u.)
12,CTTCAATTGAGATGACCAATTTAGGACACAAGACAAAGCCCGGAGTCACCTAGTGCAG,5930 fluorescence intensity (a.u.)
13,ATTTAAATAGATGAGATTAAATTTATCCTATGGCTTGAAACGGAGTCACCTAGTGCAG,23900 fluorescence intensity (a.u.)
14,CTAATTAGTTTTGGTTAGTACTTATAATTTTGTCCTAATGCGGAGTCACCTAGTGCAG,15700 fluorescence intensity (a.u.)
15,GTGATTTATATGTCTCATCCTATAGTAGGGCAGGAGGAGTCGGAGTCACCTAGTGCAG,6640 fluorescence intensity (a.u.)
16,ATAATTGCTACTCTATCGACTCATATCGAGATGTCCACCCCGGAGTCACCTAGTGCAG,11900 fluorescence intensity (a.u.)
17,GTTGATTTAAATTCCTAAGATGCTAAAATTGGCCAATAATCGGAGTCACCTAGTGCAG,19500 fluorescence intensity (a.u.)
18,GGTAAATTTTATCCAGTTCTATTATTTACGGTGTTTTCCTCGGAGTCACCTAGTGCAG,10600 fluorescence intensity (a.u.)
19,TCCATCAATTTACCGTCAGCCACAGCGTTATACGCGTGAACGGAGTCACCTAGTGCAG,4650 fluorescence intensity (a.u.)
20,CTTGTCATGATTAAGGTCCATCACAAAAGAATGCATGTCTCGGAGTCACCTAGTGCAG,5680 fluorescence intensity (a.u.)
21,CTCATCCTCCTCAATCACCGTTCGACTCGCTGCTTCCCCTCGGAGTCACCTAGTGCAG,7760 fluorescence intensity (a.u.)

row,Sequence,binding signal
1,AACTAATTTCAGTACAAAGACAGCCACTCCAGATATTAGGCGGAGTCACCTAGTGCAG,4720 fluorescence intensity (a.u.)
2,CACATGATTGATGTGAAATGATAAGAAATCAATGGACAAGCGGAGTCACCTAGTGCAG,42300 fluorescence intensity (a.u.)
3,AATTTATAATTATATATTATAAGCTTGAATTTATTTATACCGGAGTCACCTAGTGCAG,15000 fluorescence intensity (a.u.)
4,CCGGAAATTATTATTTTAATCGGCGCGGTGTCCACTGGCACGGAGTCACCTAGTGCAG,13700 fluorescence intensity (a.u.)
5,AATTGTCTATCAACAATGTTTGAGTAGACTATTCATACAGCGGAGTCACCTAGTGCAG,4060 fluorescence intensity (a.u.)
6,TTACAAGACTTTCAATTATTATCCACATTTATATAGATGTCGGAGTCACCTAGTGCAG,7150 fluorescence intensity (a.u.)
7,CTTTCCATTATATACTTGTCACTGGGTGCTATACTGCTTTCGGAGTCACCTAGTGCAG,3290 fluorescence intensity (a.u.)
8,TGTAACTCAACTAATTGAGTAACTTATGGTGGAACATGTTCGGAGTCACCTAGTGCAG,19300 fluorescence intensity (a.u.)
9,GCGTTTGATTTGTTAGTAGCTCGTTGAGTGCATACAATGACGGAGTCACCTAGTGCAG,17300 fluorescence intensity (a.u.)
10,CACATGCATTGACTAATAATTAATACATGTGGGTTGGACCCGGAGTCACCTAGTGCAG,7290 fluorescence intensity (a.u.)
11,AATAGGGTCAATTACTGAATCCAACAATGTTCTCGCAGCTCGGAGTCACCTAGTGCAG,5180 fluorescence intensity (a.u.)
12,GAATCATAGAAAATTAATTATATGAGACAGAGATAGTATTCGGAGTCACCTAGTGCAG,4550 fluorescence intensity (a.u.)
13,CCAATGATGAATGGAATACAATAATCTCGATATCTTCGTACGGAGTCACCTAGTGCAG,4840 fluorescence intensity (a.u.)
14,GAGAAGATTTTACATGATGTAAGTATGGCATACGGATGTTCGGAGTCACCTAGTGCAG,3280 fluorescence intensity (a.u.)
15,TCACACATCAATTTTCCAATTTTGCGCTGCTCTTTCCTCACGGAGTCACCTAGTGCAG,4690 fluorescence intensity (a.u.)
16,TGATTCTATCAATTAGTAATGTCTCAAGGAGCTAAAATTTCGGAGTCACCTAGTGCAG,10600 fluorescence intensity (a.u.)
17,GTGATTGAGTTTGAAAATGTAAACAATATATGAATAGATTCGGAGTCACCTAGTGCAG,20800 fluorescence intensity (a.u.)
18,TTGTGATTGCTTGTAGGTTTCATGGACTGAAAACTAGAACCGGAGTCACCTAGTGCAG,45800 fluorescence intensity (a.u.)
19,GGTTGATTATTCCGTCGGCGTCAGCCATCAGGTGCATCACCGGAGTCACCTAGTGCAG,27900 fluorescence intensity (a.u.)
20,GAGAGAAATTTATTTTCAATTATCTTCCCCATAGGTATTGCGGAGTCACCTAGTGCAG,8950 fluorescence intensity (a.u.)
21,GTGAGTGATTGTGAATGCATGGTATTTATAGACTCGGTTTCGGAGTCACCTAGTGCAG,43600 fluorescence intensity (a.u.)
